Source: the supplement of paper PMC3334620
Whole data set: some 33,000 sequences, median “E-score (-0.5 to 0.5)” near -0.012, cut for the highest 2% near 0.27. The list shows a part of the results.

What follows are sequences tested against T1, Vhr1 (UniProt P40522) (assay: PBM E-score (8-mer binding enrichment) (E-score (-0.5 to 0.5)); higher = stronger / more preferred TF binding; most listed sequences are background and not binding sites). Settings: protein concentration: 200 nM; construct: GST-full length.
T1 sequence: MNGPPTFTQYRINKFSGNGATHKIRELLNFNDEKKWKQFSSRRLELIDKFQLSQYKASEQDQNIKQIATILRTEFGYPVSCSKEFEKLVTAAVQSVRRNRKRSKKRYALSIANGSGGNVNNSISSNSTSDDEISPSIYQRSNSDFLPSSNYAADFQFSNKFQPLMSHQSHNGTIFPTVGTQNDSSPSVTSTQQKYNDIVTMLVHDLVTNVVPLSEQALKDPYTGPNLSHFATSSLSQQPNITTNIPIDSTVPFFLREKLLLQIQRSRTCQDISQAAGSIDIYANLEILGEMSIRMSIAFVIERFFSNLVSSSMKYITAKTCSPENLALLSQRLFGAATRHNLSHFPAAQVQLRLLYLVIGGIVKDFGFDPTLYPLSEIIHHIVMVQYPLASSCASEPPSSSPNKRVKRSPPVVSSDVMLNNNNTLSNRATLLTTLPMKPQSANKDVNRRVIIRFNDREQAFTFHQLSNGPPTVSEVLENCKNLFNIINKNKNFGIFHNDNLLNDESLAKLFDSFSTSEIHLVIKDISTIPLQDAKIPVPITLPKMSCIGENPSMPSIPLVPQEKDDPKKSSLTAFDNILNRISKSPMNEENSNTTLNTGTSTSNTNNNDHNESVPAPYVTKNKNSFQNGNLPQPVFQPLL
Procedure, shortened: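 Yeast transcription factors, full-length or as DNA-binding domains, were expressed with a GST tag using PURExpress in vitro transcription/translation. At about 100-200 nM they were applied to universal all-10-mer Agilent arrays, double-stranded by primer extension on fresh or once-stripped slides. Fluorescent anti-GST detected bound protein, and masliner normalised the scans. E-scores for ungapped eight-base words, pooled with reverse complements, came from the Universal PBM Analysis Suite.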

Row | Sequence | PBM E-score
1 | GCCCAGTA | -0.156
2 | AAGGTACC | -0.208
3 | GTTACAAA | 0.0546
4 | CCAGCGCA | -0.139
5 | ACTTGTAC | 0.0588
6 | CCTCTTCC | -0.215
7 | GACGAACC | -0.141
8 | ATGGTAGC | 0.0267
9 | GAGGCACA | 0.00806
10 | AGGAGGCG | -0.207
11 | TAAGCGTA | -0.173
12 | CGCGGTTC | 0.161
13 | TGACCCCA | 0.11
14 | GGCTAGCC | -0.274
15 | ACGGGCTG | 0.043
16 | AGTTAACG | -0.121
17 | TCGGTAGA | -0.118
18 | CAGTCTAA | -0.0775
19 | GTCGTTTA | -0.0687
20 | AGATGATG | 0.229
21 | ACCCCAGT | -0.0732
22 | CTTCCATA | -0.214

Row | Sequence | PBM E-score
23 | CAGGAAGG | -0.239
24 | CAGGTAGA | -0.0896
25 | GGCCGTTA | -0.0938
26 | GGGGGGCA | -0.108
27 | ACCGGCAC | 0.0357
28 | ACAGTGAG | 0.116
29 | CTTAGACC | -0.253
30 | AATTACCT | -0.114
31 | GGGCATTA | -0.205
32 | CTTAGCTC | -0.0797
33 | CCTTCCAC | -0.207
34 | GCTCACTA | 0.125
35 | AAAATCTT | -0.316
36 | AGAGGGAG | -0.106
37 | GGAGTTAC | -0.00502
38 | GACGATTA | -0.0227
39 | CCGACCCG | -0.0837
40 | GAAGACGC | -0.0862
41 | CACCCCGG | 0.0623
42 | AATCACAC | 0.316
43 | AGGTTACT | 0.0309
44 | CAATATCA | 0.0826

Row | Sequence | PBM E-score
45 | GTCAGAAC | -0.0558
46 | CAGCGGAA | -0.0684
47 | CTCAACAG | -0.13
48 | CTATCTTA | -0.0603
49 | GCTAAATA | -0.157
50 | CCGGGTGC | -0.0457
51 | CAAATGTA | 0.0556
52 | CCTGCTAC | 0.0687
53 | ACTCCGCA | 0.0593
54 | ACAGAACA | 0.183
55 | ATCACAGC | 0.182
56 | AATGGGCC | -0.0587
57 | CCCTGATC | -0.0802
58 | CTGTCATA | 0.0334
59 | ACCGGTCG | -0.119
60 | CCCATCAC | 0.198
61 | CGAGAAGC | -0.115
62 | GCGGAGTA | 0.0654
63 | ACCCGGGA | 0.133
64 | CACAATCG | 0.153
65 | GAAACAGC | -0.0915
66 | CCGCTAAC | -0.104

Row | Sequence | PBM E-score
67 | TAGGCGCA | -0.0195
68 | CCATGGCA | -0.018
69 | GAGGGGAC | 0.191
70 | CGATTAAC | 0.0474
71 | CATTACCG | -0.103
72 | ACAGACCG | 0.183
73 | ACACATCA | 0.0839
74 | CCCGTCTA | 0.00077
75 | AGGATTCG | 0.0805
76 | AGCTTCGA | -0.127
77 | CATGAGTA | 0.225
78 | TCTGGACA | -0.0655
79 | ACTGTCTC | 0.0275
80 | ACTTAAGT | -0.295
81 | ACAGAGCG | -0.0964
82 | ATTGTGCG | -0.0287
83 | GCCCATGA | 0.262
84 | GCACGCCC | -0.0287
85 | GAGTTTGC | 0.0457
86 | CTAAGCTC | -0.15
